In PubChem BioAssay AID488969 (Vanderbilt High Throughput Screening Facility, 2010):
Whole data set: some 110,000 compounds, median “z-score” near -0.1, cut for the highest 2% near 2. Some of the results follow.

Each compound was assayed against Metabotropic glutamate receptor 8 (Rattus norvegicus) (UniProt P70579) (assay: rat mGluR8 modulators via GIRK flux, primary screen, cell-based, thallium flux, HTS (AID 488969)). Conditions: HEK293 rat mGluR8, GIRK (G protein-gated inwardly rectifying potassium channel) thallium flux, FluoZin2; at 10 µM; stronger effect = higher value; submaximal glutamate (EC20) added with thallium.
Chain of UniProt P70579 (P70579 whole entry, looked up): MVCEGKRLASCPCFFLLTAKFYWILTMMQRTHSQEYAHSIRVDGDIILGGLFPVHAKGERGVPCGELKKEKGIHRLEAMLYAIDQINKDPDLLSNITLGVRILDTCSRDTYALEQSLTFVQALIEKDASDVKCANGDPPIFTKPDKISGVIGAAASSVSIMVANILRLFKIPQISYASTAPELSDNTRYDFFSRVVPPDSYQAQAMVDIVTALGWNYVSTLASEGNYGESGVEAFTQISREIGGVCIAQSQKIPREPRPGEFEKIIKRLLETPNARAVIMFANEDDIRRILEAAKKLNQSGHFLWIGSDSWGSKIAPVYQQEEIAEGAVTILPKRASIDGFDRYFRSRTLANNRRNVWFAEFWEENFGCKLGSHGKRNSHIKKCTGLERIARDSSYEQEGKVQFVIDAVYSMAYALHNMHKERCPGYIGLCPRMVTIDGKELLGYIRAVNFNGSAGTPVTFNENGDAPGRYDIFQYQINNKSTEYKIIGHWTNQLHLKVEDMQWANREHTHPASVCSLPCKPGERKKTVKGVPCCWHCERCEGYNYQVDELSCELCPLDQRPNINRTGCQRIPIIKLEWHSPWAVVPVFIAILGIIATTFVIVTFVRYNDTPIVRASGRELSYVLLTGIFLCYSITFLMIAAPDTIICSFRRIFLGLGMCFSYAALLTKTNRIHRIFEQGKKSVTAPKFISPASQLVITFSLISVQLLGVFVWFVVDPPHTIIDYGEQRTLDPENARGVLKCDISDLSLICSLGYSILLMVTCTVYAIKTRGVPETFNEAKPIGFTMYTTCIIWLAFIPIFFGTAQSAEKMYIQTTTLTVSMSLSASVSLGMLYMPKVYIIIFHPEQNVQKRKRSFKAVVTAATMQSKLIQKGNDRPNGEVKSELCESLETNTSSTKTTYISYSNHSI

Compound | z-score
CCc1nc2ccccc2c(C(=O)OCC(=O)NCc2ccco2)c1C | -1.63
Cc1cc2c(ncn2C)c(NS(=O)(=O)c2ccccc2Cl)c1C | -0.0979
Cc1cccc(CN2CCCC(C(=O)N3CCc4ccccc4C3)C2)c1 (centres undefined) | -0.0704
Cc1ccc2nc(-c3cccc(NS(C)(=O)=O)c3)cc(-c3ccccc3)c2c1 | 0.0171
CCOc1ccc(NC(=O)c2cnsn2)cc1 | -0.149
NC(=O)C1(NC(=O)[C@@H]2CC3(CC(c4cccc(NC(=O)c5cc([N+](=O)[O-])cc([N+](=O)[O-])c5)c4)=NO3)CN2C(=O)c2ccccc2)CC1 (some centres undefined) | 1.45
CCOc1cc(Br)c(Br)c(C=Nc2ccc(NC(C)=O)cc2)c1O | 0.0484
CN1CCN(C(=O)CCNC(=O)Cn2ccc3ccccc3c2=O)CC1 | 0.0853
COC(=O)CNC(=O)C(C)NC(=O)OCc1ccccc1 (centres undefined) | -0.415
COc1ccc(Cl)cc1C(=O)NCc1cnn(C)c1C | -0.509
COc1ccc(C2CC(=O)C3=C(C2)Nc2ccccc2N(C(C)=O)C3c2ccco2)cc1 (centres undefined) | -0.431
O=C(Nc1cccc(-c2cn3ccccc3n2)c1)c1cccc(Cl)c1 | -0.397
COc1ccc(N2CCN(C(=O)c3cc(N4C(=O)C5C6CCC(C6)C5C4=O)ccc3Cl)CC2)cc1 (centres undefined) | -0.324
CN(C)CCCN(C(=O)CCc1ccccc1)c1nc2ccc(Cl)cc2s1 | -1.28
Cc1sc2nc(CN3CCOCC3)nc(N3CCOCC3)c2c1C | -0.112
O=C(Cc1cccs1)N/N=C/C(Br)=C/c1ccccc1 | -0.184
Cc1ccc(Sc2ncccc2C(=O)O)cc1C | -0.096
COc1ccc2nc(C)cc(SCC(=O)NNC(=O)COc3ccccc3)c2c1 | -0.135
CC(c1ccc(Br)cc1)N1CC23C=CC(O2)C(C(=O)O)C3C1=O (centres undefined) | -0.566
O=C(O)c1cnn2c(C(F)F)cc(C3CC3)nc12 | 0.114
CCOc1cc(C(=O)NCc2ccncc2)cc(OCC)c1OCC | 1.8
O=C(NCCc1ccccc1)C1CCCN(S(=O)(=O)c2cccs2)C1 (centres undefined) | 0.045
Cc1cccc(C)c1NS(=O)(=O)c1ccc2c(c1)C(=O)c1ccccc1C2=O | -0.146
Nc1c(C(=O)NCC2CCCO2)c2nc3ccccc3nc2n1-c1ccccc1 (centres undefined) | -1.47
COc1ccc(NC(=O)c2cc3sccc3n2Cc2ccc(F)cc2)cc1OC | 0.448
Cc1nc(NCc2ccc3c(c2)OCO3)c2oc3ccccc3c2n1 | -0.964
CCS(=O)(=O)n1nc(-c2ccccc2)cc1N | -0.0144

Compound | z-score
CC1CCN(c2ccc(NC(=O)c3cccnc3)cc2)CC1 | 0.809
Cc1nn(C)c(Oc2cccc(Cl)c2)c1C(=O)O | -0.288
COc1cccc(NC(=O)C(=O)N2CCOCC2)c1 | 0.557
N#CC1=C(N)c2ccccc2CC12CCCCC2 | 0.165
O=C(c1cccn2c(=O)c3cc(Cl)ccc3nc12)N1CCOCC1 | 0.152
CCNC(=O)/N=C1/NC(=O)C(C(C)C)O1 (centres undefined) | -0.0624
CCCCCCCCS(=O)C1CCS(=O)(=O)C1 (centres undefined) | 0.614
COc1ccc(C(=O)NCc2ccccn2)cc1 | 0.15
CCOc1ccc(NC(=O)C2CCCN(C(=O)NCc3ccccc3)C2)cc1 (centres undefined) | 1
O=C1OCc2cc(NC(=O)C3CCCCC3)ccc21 | -0.19
O=C(CCc1nc(-c2ccccc2)c(-c2ccccc2)o1)OCc1ccc(Br)cc1 | -0.201
O=[N+]([O-])c1ccc(Sc2cccc3cccnc23)cc1 | 0.158
Cc1cc(=O)oc(C)c1C(=O)Nc1cccc2nonc12 | 0.794
Cc1c(NC(=O)CCN2C(=O)c3ccccc3C2=O)c(=O)n(-c2ccccc2)n1C | 0.644
COC(=O)c1ccsc1NC(=O)CN1CCN(c2ccc(F)cc2)CC1 | 0.602
CC(=O)C12C3C4C(C5C1C3C5(Br)C41OCCO1)C21OCCO1 (centres undefined) | -0.0274
CCCc1cc(-c2nc(N)ncc2-c2ccc3c(c2)OCCCO3)c(O)cc1OC | 0.524
COc1ccc(S(=O)(=O)N2CCCN(S(=O)(=O)c3ccc(OC)c(C)c3)CC2)cc1C | -0.0209
Brc1c(CSc2nncn2-c2ccccc2)nc2sccn12 | 0.101
COc1ccc(C(=O)N/C(=C/c2cccs2)C(=O)NCCCn2ccnc2)cc1OC | -0.0492
CC1(c2ccccn2)Nc2ccccc2-c2nc3ccccc3n21 (centres undefined) | -0.604
O=C(CN1C(=O)CCS(=O)(=O)c2ccccc21)Nc1ccc2c(c1)OCCO2 | 0.219
Cc1cc(C)c(C(N)=O)c(Nc2cccc(Cl)c2C)n1 | 0.449
O=C(COc1ccc2ccccc2c1)Nc1ccc(Cc2ccncc2)cc1 | 0.0647
Cc1ccc(S(=O)(=O)CC#CCOC(=O)c2ccc([N+](=O)[O-])cc2)cc1 | -0.871
S=C1NC2=C(CCCC2)C2(CCCCC2)N1 | -0.127
CCN(CC)C(=O)c1ccc(S(=O)(=O)N2CCC(c3nc4ccccc4s3)CC2)cc1 | 0.306
